# Experimental data published in article PMC6919601, “Identification of Plasmodium dipeptidyl aminopeptidase allosteric inhibitors by high throughput screening” (PLoS ONE, 2019).
# Several values for one entry are separate records, joined by “and”; a condition that tells them apart may be missing. Identical values can stand only once. Screen size: about 110,000 compounds; about 230 (0.21%) showed an effect of 50% or more. The list shows a part of the results.
# Biological target: DPAP1 (Plasmodium falciparum, UniProt Q8IIJ9)
# Sequence (Q8IIJ9 whole entry, looked up): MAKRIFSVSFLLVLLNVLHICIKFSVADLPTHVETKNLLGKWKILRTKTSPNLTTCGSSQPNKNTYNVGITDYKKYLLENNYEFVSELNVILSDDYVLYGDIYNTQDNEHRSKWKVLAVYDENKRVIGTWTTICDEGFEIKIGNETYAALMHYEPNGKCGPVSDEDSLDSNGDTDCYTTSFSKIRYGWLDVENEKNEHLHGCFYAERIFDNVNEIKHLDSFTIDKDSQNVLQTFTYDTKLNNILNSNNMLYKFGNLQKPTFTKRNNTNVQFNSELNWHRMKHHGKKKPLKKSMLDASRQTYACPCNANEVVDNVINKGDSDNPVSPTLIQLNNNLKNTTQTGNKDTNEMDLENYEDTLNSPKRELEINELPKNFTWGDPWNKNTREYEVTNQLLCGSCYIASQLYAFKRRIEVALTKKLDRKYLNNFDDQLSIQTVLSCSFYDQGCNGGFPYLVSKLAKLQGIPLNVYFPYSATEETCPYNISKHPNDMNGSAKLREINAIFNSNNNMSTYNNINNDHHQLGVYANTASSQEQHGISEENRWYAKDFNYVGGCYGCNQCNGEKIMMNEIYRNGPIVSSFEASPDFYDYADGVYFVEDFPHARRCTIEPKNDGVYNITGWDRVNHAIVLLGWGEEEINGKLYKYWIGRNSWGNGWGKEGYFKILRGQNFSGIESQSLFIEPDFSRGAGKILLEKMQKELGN
# Assay: primary screen, percent inhibition; read by cleavage of a fluorogenic dipeptide substrate; higher = more effect of the substance
# Design: species or system P. falciparum D10 trophozoite lysates; single well
# 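Further: 30 min substrate incubation versus DMSO and 10 µM JCP410 controls.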
row,Compound,% Inhibition @ 10 uM
1,Cc1cc(C)nc(NS(=O)(=O)c2ccc(NC3=NC(=O)CS3)cc2)n1,-1.51%
2,CCCNC(=O)C1CCN(c2nc3c(C)cc(C)cc3s2)CC1,-5.19%
3,CCOC(=O)C1=C(CN2CCC(C)CC2)NC(=O)NC1c1ccc(C)cc1 (centres unmarked),3.47%
4,CCOC(=O)c1c(NC(=O)c2cc(=O)c3cc(Cl)ccc3o2)sc2c1CCCC2,0.248%
5,Fc1ccc(CN2CCN(c3ccccc3Cl)CC2)cc1Br,-1.86%
6,O=C(CNS(=O)(=O)c1ccc(Br)cc1)N1CCN(Cc2ccccc2)CC1,10.8%
7,Cc1ccc(NCC2COc3c(C)cccc3C2=O)cc1 (centres unmarked),-6.68%
8,CC(C)N(Cc1nc(-c2ccccc2)no1)C(=O)c1ccccc1-c1ccccc1,3.84%
9,COc1ccccc1CNC(=O)C1CCCN(Cc2cnn(-c3ccccc3)c2-n2cccc2)C1 (centres unmarked),5.23%
10,CCCN1CCN(C(=O)Cn2cnc3onc(-c4ccc(F)cc4)c3c2=O)CC1,-7.87%
11,CN1CCN(C(=O)C2CCC(CNS(=O)(=O)c3cccc4cccnc34)CC2)CC1 (centres unmarked),-0.692%
12,COc1ccc(-c2cc(C(=O)O)c3c(-c4ccc(F)cc4)[nH]nc3n2)cc1Br,-3.27%
13,O=c1c2ccccc2nc2c3ccccc3c(N3CCCCCC3)nn12,8.74%
14,CCCCCNC(=O)Nc1cccc(Cl)c1,-0.192%
15,COc1ccccc1/C=C1/N=C(c2cccc3ccccc23)OC1=O,-3.44%
16,CC(C)(C)c1ccc(C(=O)Nc2c(O)oc3ccccc3c2=O)cc1,-2.12%
17,Cn1c(Cl)c[n+](C)c1C(O)c1ccccc1 (centres unmarked),-0.615%
18,c1cncc(-c2nc3c4ccccc4nc(NCC4CCCO4)n3n2)c1 (centres unmarked),-2.42%
19,CCCOc1ccc(C(N)CC(=O)O)cc1OC (centres unmarked),1.62%
20,Cc1nn(CC(=O)NC2CCN(Cc3ccccc3)CC2)c(=O)c2nn(-c3ccccc3)c(C)c12,-3.81%
21,O=C1c2cccc(Cl)c2C(=O)N1c1cccc(Cl)c1,-6.59%
22,COc1cccc(-c2noc(CCC(=O)N3CCN(c4ccc(N5CCOCC5)nn4)CC3)n2)c1,-1.7%
23,CC1(C)CC(=O)C2=C(C1)OC(N)=C(C#N)C2c1ccc(COc2cccc(C(F)(F)F)c2)o1 (centres unmarked),-3.77%
24,O=C(NCCc1cccs1)C1CCN(C(=O)c2ccc(-n3ccc4ccccc43)s2)CC1,7.43%
25,CCOC(=O)c1c(C)n(CC(C)C)c2ccc(O)cc12,0.51%

row,Compound,% Inhibition @ 10 uM
1,O=C(CCNS(=O)(=O)c1ccc(Br)s1)N1CCc2ccccc2C1,-5.52%
2,Cc1cccc(CCNC(=O)Cn2ncc3c4ccccc4nc-3c2O)c1,-3.73%
3,CC1CCCN(S(=O)(=O)c2cccc3nsnc23)C1 (centres unmarked),2.06%
4,CCOc1ccc(C(=O)Nc2cc(C)cc(C)n2)cc1,5.08%
5,CSc1ccccc1NC(=O)CN(C)S(=O)(=O)c1ccc(C)cc1,-5.01%
6,OCCN1CCN(Cc2c(Cl)cccc2Cl)CC1,-0.505%
7,O=C(O)CC(c1ccc(Cl)cc1)n1cnnn1 (centres unmarked),-0.403%
8,COCCCNC(=O)CCc1nnc2n(Cc3ccc(F)cc3)c(=O)c3ccccc3n12,2.6%
9,COc1ccc(S(=O)(=O)Nc2cccc(Cl)c2C)cc1,2.22%
10,COc1ccc(CC(C)NCc2ccco2)cc1 (centres unmarked),0.472%
11,O=C(NCCCN1CCCC1)C(Cc1ccccc1)N1Cc2ccccc2C1=O (centres unmarked),1.6%
12,COc1ccc(-c2cc(C(=O)N3N=C(C(F)F)CC3(O)C(F)F)c3ccccc3n2)c(OC)c1 (centres unmarked),5.61%
13,Cc1cc(C)nc(Oc2ccc(Br)cc2Br)n1,6.51%
14,CCCCCNC(=O)C(C)Oc1ccc(Cl)cc1C (centres unmarked),1.03%
15,C=CCOC(=O)C1=C(C)N(CC)C(=O)NC1c1ccc(Br)cc1 (centres unmarked),-4.5%
16,COc1cccc(NC(=O)CNS(=O)(=O)c2ccc(Cl)cc2)c1,-1.98%
17,CCN(CC)CC(O)Cn1c2c(c3cc(C)ccc31)CCCC2=O (centres unmarked),-3.75%
18,O=C1N/C(=C/c2ccc(-c3ccccc3)o2)C(=O)N1Cc1ccccc1F,1.63%
19,COC(=O)C1=C(C)OC(N)=C(C#N)C1c1ccc(Cl)cc1 (centres unmarked),5.09%
20,COc1ccc(S(=O)(=O)/N=C2/C(C)=CC(=O)C(S(=O)(=O)c3ccccc3)=C2C)cc1,8.01%
21,COCc1[nH]nc2c1C1(CCN(C(=O)c3ccccc3)CC1)C(C#N)=C(N)O2,0.628%
22,CC(C)C[C@H](NC(=O)OCc1ccccc1)C(=O)NC(C#N)c1cccnc1 (some centres unmarked),3.01%
23,CCCn1c(C(C)NC(=O)c2cccc(C)c2)nc2ccccc21 (centres unmarked),18.5%
24,CC(C)C[C@H](NC(=O)OCc1ccccc1)C(=O)NNC(=O)c1csc([C@H](CC(C)C)NC(=O)OCc2ccccc2)n1,0.744%
25,CCOC(=O)c1cc(-c2ccc(C)cc2)n(CCC(=O)NCc2ccc(F)cc2)c1C,0.0579%

row,Compound,% Inhibition @ 10 uM
1,CNc1cc(C)c(C#N)c2nc3ccccc3n12,4.26%
2,COc1ccc2c(c1)CC(N1CCN(CCCO)CC1)c1cc(SC)ccc1S2 (centres unmarked),-10.5%
3,O=c1[nH]c2ccccc2c(=O)n1CCc1ccccc1,-5.54%
4,CCOc1ccc(C2C(C#N)=C(N)OC3=C2C(=O)CCC3)cc1OCC (centres unmarked),-0.941%
5,N#CC1=C(N)N(c2cccnc2Cl)C2=C(C(=O)CCC2)C1c1cc(Cn2cncn2)cs1 (centres unmarked),4.31%
6,O=C(CN1C(=O)c2ccccc2S1(=O)=O)Nc1cc(Cl)ccc1Cl,-0.46%
7,N#CCSc1nc2ccccc2c(=O)n1CC1CCCC1,-3.19%
8,CCCCN(CCCC)c1c(NC2CCN(C(=O)OCC)CC2)c(=O)c1=O,3.54%
9,CCOc1cccc(N2C(=O)CC(N3CCN(c4ccc(OC)cc4)CC3)C2=O)c1 (centres unmarked),-2.8%
10,O=C(NCCCN1CCc2ccccc2C1)C1CCN(c2ncnc3c2nc2n3CCCCC2)CC1,3.05%
11,COc1ccc(CN2CCN(c3cc(C)c(C#N)c4nc5ccccc5n34)CC2)cc1,-6.95%
12,O=C1CC(c2ccccc2Cl)C2=C(CC(c3cccs3)CC2=O)N1 (centres unmarked),5.86%
13,C=CCn1c(SCCCCCC)nc2c1c(=O)[nH]c(=O)n2C,-4.64%
14,CC1=C(C(=O)Nc2ccc(F)cc2F)C(c2cccnc2)C2=C(O)CC(C)(C)CC2=N1 (centres unmarked),-3.69%
15,O=C(/C=C/c1ccccc1)Nc1nnc(S(=O)(=O)N2CCOCC2)s1,1.68%
16,COCCN1C(=O)c2ccccc2C(C(=O)NC2CCCc3ccccc32)C1c1cccs1 (centres unmarked),1.09%
17,CC(C)(C)SCCNC(=O)c1ccc(CN2CCc3ccccc3C2)cc1,-0.0626%
18,Cc1ccc(Cn2nnc3c(O)nc(C4CCN(S(=O)(=O)c5cc(C)ccc5C)CC4)nc32)cc1,-4.07%
19,COc1ccccc1N1CCN(C(=O)c2ccc(C)c(C)c2)CC1,-5.13%
20,c1ccc(CNC2=Nc3ccccc3CCC2)cc1,1.24%
21,NC(=O)COc1ccccc1/C=C1/SC(=O)N(CC(=O)N2CCc3ccccc3C2)C1=O,6.18%
22,Cc1c(C(=O)Nc2ccccc2C(N)=O)cnn1C,1.67%
23,CCN(Cc1ccccc1)C(=O)Cn1c(=O)cc(C)c2c(C)nn(-c3ccc(C)cc3)c21,0.762%
24,COC(=O)C1=C(O)/C(=C\c2ccc(CNS(=O)(=O)c3ccccc3)o2)N=C1C,2.17%
25,COc1ccc(C2(CNC(=O)C(=O)NCc3ccco3)CCCC2)cc1OC,3.27%

row,Compound,% Inhibition @ 10 uM
1,COc1ccc(OCC(O)CN2CCCCC2)cc1 (centres unmarked),-1.29% and -2.97%
2,CCc1ccc(-c2nc(CN3CCCC(C(=O)NCc4ccccc4)C3)c(C)o2)cc1 (centres unmarked),0.689%
3,O=C1c2cnccc2CN1Cc1ccccc1,0.66%
4,O=C(O)CNC(=O)/C=C/c1cccc(C(F)(F)F)c1,2.35%
5,COC(=O)c1ccc(Br)c(S(=O)(=O)N2CCCCC2)c1,1.91%
6,COC(=O)C1=C(C)N=C(C)/C(=C(/O)OC)C1C(=O)O (centres unmarked),0.989%
7,Cc1ccc(C(=O)O)cc1NC(=O)c1cccs1,-0.582%
8,c1ccc(CN2CCN(C3CCC(c4ccccc4)CC3)CC2)cc1 (centres unmarked),2.99%
9,Cc1cc(C)c(C(=O)CC2(C(F)(F)F)NCCN2)c(O)n1,3.38%
10,CCn1c(SCc2nc(-c3ccc(Br)cc3)no2)nnc1-c1ccco1,1.74%
11,C=CCn1c(COc2ccccc2C)nc2ccccc21,9.83%
12,CCc1ccccc1N1C(=O)CC(Sc2nccc(C)n2)C1=O (centres unmarked),2.95%
13,C=CCn1c(SCC(=O)NCc2ccc3c(c2)OCO3)nc2sc3c(c2c1=O)CCCC3,-1.6%
14,O=C(CN1C(=O)c2cccc3cccc(c23)C1=O)NO,0.878%
15,Cc1ccc(-n2c(C)cc(/C=C3\C(=N)N4N=C(S(C)(=O)=O)SC4=NC3=O)c2C)c(C)c1,0.208%
16,O=C(COCc1cc(-c2ccc(F)cc2)on1)NC1CCCc2ccccc21 (centres unmarked),-8.55%
17,OC[C@@H]1C=C(c2ccccc2)C[C@H](CO)C1,-5.36%
18,CNc1ccc(OC(F)F)cc1C(=O)c1ccccc1,-0.436%
19,CC(=O)Nc1ccc(C(C)(C)c2ccc(NC(C)=O)cc2)cc1,-0.0369%
20,CCc1ccc(OCC(=O)N(Cc2nc(-c3ccc(OC)cc3)no2)C(C)C)c(Br)c1,-1.84%
21,COc1ccccc1N1CCN(C2CC(=O)N(c3ccc(C(C)C)cc3)C2=O)CC1 (centres unmarked),0.583%
22,Cc1ccc(CCN2C(=O)CCC2(C)C(=O)NC2CCC(C)CC2)cc1 (centres unmarked),5.23%
23,CC1CN(CC2=CC[C@H]3C[C@@H]2C3(C)C)CC(C)O1 (some centres unmarked),0.217%
